Results taken from PubChem BioAssay AID588591 (National Center for Advancing Translational Sciences (NCATS), 2011).
Several values for one entry are separate records, joined by “and”; a condition that tells them apart may be missing. Equal entries are not always repeated. Screen size: about 390,000 compounds; about 4,700 (1.2%) were called active. Not shown: some 4% with an inconclusive outcome. Calls follow the shape of the dose curve; as a rule, active = well fitted inhibition curve with a large enough effect; inconclusive = small, poorly fitted or top-dose-only effect, or another doubt; inactive = no such curve, though single readings can be large or run the other way. The entries are a selection whose mix differs from that of the whole data set. Where a structure was tested more than once in an assay, its records may differ in their call.

Each compound was assayed against DNA polymerase eta (Homo sapiens) (UniProt Q9Y253) (assay: qHTS for Inhibitors of Polymerase Eta). Details: recombinant Pol eta, fluorescent DNA replication assay; series mostly up to 114 µM; activity change, negative = inhibition: at the top concentration.
Chain of UniProt Q9Y253 (Q9Y253 whole entry, looked up): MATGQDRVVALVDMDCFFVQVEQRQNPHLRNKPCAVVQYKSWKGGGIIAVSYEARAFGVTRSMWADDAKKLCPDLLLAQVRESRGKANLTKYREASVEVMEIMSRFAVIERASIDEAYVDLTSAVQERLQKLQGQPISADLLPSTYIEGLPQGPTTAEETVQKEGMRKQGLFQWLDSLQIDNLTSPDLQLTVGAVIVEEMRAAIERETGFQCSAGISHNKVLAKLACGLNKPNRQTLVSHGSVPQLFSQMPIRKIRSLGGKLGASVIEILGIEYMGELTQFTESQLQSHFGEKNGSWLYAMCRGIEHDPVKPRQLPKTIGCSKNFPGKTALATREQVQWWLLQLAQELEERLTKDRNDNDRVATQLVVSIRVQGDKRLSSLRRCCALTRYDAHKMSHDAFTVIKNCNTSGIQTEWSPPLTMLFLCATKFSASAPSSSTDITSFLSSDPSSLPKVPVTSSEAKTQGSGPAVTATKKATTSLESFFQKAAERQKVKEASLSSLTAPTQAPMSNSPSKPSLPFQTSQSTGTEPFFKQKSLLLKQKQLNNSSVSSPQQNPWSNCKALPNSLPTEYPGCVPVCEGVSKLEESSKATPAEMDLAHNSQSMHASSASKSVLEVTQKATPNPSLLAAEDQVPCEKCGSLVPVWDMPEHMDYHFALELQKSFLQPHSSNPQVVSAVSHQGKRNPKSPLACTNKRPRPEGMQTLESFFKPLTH
Summary of the method: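 Pol eta at 10 nM preincubated with compounds 15 min at room temperature; reaction started with fluorescent substrate (50 nM final) and read kinetically at 0 and 10 min.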
% is scaled to controls: 0 for no effect and ±100 for the full control effect; potency is read from the fitted curve at half-maximal effect.

Structure (SMILES) | activity change, negative = inhibition | Potency
Cc1cccc(N2C(=O)CC(n3ccnc3)C2=O)c1C (stereo not given) | inactive: 17.9% | 
Cc1cc(C)cc(NC(=O)Cn2nnc(C(=O)NCc3ccco3)c2N)c1 | inactive: -16.2% | 
COc1ccc(C2c3c(-c4ccccc4O)n[nH]c3C(=O)N2Cc2ccco2)cc1 (stereo not given) | inactive: -8.54% | 
Cc1cc(/C=C2\NC(=S)NC2=O)c(C)n1-c1cccnc1 | inactive: -6.2% | 
CC1=CC(C)=Nc2ccccc2N1 | inactive: 16.1% | 
COc1cc(/C=C2/C(=N)N3C(=NC2=O)SN=C3S(=O)(=O)C(C)C)ccc1OC(=O)c1ccco1 |  | active: 79.4 µM
O=C(O)CCC(=O)Nc1sc2c(c1C(=O)Nc1ccccc1)CCCCC2 |  | inactive and active: 89.1 µM
Cc1noc(NS(=O)(=O)c2ccc(N/C=C/C(=O)c3ccc4c(c3)OCO4)cc2)c1C | inactive: 5.15% | 
O=C(O)[C@H]1CCCC[C@H]1C(=O)Nc1ccc(S(=O)(=O)N2CCOCC2)cc1 | inactive: -17.8% | 
Cc1ccc(NC(=O)Cn2c(=O)n(Cc3ccco3)c(=O)c3ccccc32)c(C)c1 |  | inactive
CCCCN(C(=O)c1cc(-c2ccco2)nc2ccccc12)c1c(N)n(CCCC)c(=O)[nH]c1=O |  | active: 50.1 µM
C[N+](C)(CCCCCC[N+](C)(C)CCCN1C(=O)c2cccc3cccc(c23)C1=O)CCCN1C(=O)c2cccc3cccc(c23)C1=O | inactive: -6.44% | 
O=c1c(OC2OC(CO)C(O)C(O)C2OC2OC(CO)C(O)C(O)C2O)c(-c2ccc(O)cc2)oc2cc(O)cc(O)c12 (stereo not given) |  | active: 11.2 µM
C=CC[C@H](CC(=O)N(CCO)Cc1ccccc1)C(=O)N[C@H](C)COC(=O)[C@@H](CC=C)Cc1ccc(F)cc1 | inactive: -28.9% | 
CCCCCC(=O)N1C[C@@H](n2cc(COC(=O)c3ccccc3)nn2)[C@H](O)C[C@@H]1c1ccc(OC)cc1 | inactive: -10.5% | 
O=C(CCCN1C(=O)/C(=C/c2cccs2)SC1=S)Nc1cc([N+](=O)[O-])ccc1O | inactive: -16.6% | 
CCOc1ccc(S(=O)(=O)NCC2CCCO2)c2cccnc12 (stereo not given) | inactive: 15% | 
O=C(/C=C\c1ccco1)NC(=S)Nc1ccccc1O |  | active: 22.4 µM
O=C(/C=C/c1ccccc1Cl)Nc1ccc(S(=O)(=O)Nc2ncccn2)cc1 | inactive: 19% | 
CCC(CC)NC(=O)Nc1ccccc1C(F)(F)F | inactive: 37.1% | 
CCCCCCN1C[C@@H](n2cc(COC(=O)c3ccccc3)nn2)[C@H](O)C[C@@H]1c1ccc(Cl)cc1 | inactive: -16.1% | 
CC(C)NCC(O)c1ccc(O)c(O)c1 (stereo not given) |  | inactive
Cc1cc(C)cc(Oc2nc3c(C)cccn3c(=O)c2/C=C(\C#N)c2nc3ccccc3[nH]2)c1 | inactive: 241% | 
Cc1ccn2c(Nc3ccccc3C)c(-c3ccccn3)nc2c1 | inactive: -25.8% | 
CN(C)c1ccc(O)c2c1CC1CC3C(N(C)C)C(=O)C(C(N)=O)=C(O)[C@@]3(O)C(=O)C1=C2O (stereo not given in full) | inactive: -2.14% | 
